The record followed here is publication PMC12136788.

T1: UNK ZnF1-3 (human, UniProt Q9C0B0 31-174)
T1 sequence: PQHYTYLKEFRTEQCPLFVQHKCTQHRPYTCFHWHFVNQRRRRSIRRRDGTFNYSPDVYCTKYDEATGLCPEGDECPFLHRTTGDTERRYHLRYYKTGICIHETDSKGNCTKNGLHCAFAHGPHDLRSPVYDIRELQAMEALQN

B1: chrX:51640900:51640901:+_ENSG00000179222_ENST00000326587|hu_hu|FALSE|FALSE (ssRNA)
RNA: GGGAGUUCUACAGUCCGACGAUCGGGGGUACUGAUGAGAAUAUACAGGUGUUCUUCUUUGUCAAUUUCUUUCAGUUGAAUCCCAAAUUUCUUCUCUAGGACAAAGCAUGCACGUUCAAUGAUUUCUGGAUAAACAUCAGUGUACAACAGAGGAUUGAGCAUCA
B2: chr3:39121231:39121232:+_ENSG00000114742_ENST00000302313|hu_mus|FALSE|FALSE (ssRNA)
RNA: GGGAGUUCUACAGUCCGACGAUCAUUCGUAUCUUUGGUUAAUAUGUGUCGCUUGUCAUUUAGGAUGUGGCACUGAAUAAUACUAGCGCCCCCUUUAAUAACUUGGUCGGGCUGUGUGCAGAGGGGCGUUAUGGGGUUUGUACACAACAGAGGAUUGAGCAUCA
B3: 126588468_126592375_426_3pUTR_ENSMUSG00000042446_ENSMUST00000135003|mouse|control|control (ssRNA)
RNA: GGGAGUUCUACAGUCCGACGAUCUUACUGGUGGUACUAUUUUCAAACUGGGCACUGAUCACAUCCUUUGGAUUUAAAAUGUCUUUUGAGCAACUUGAACAAGUCUUCUUGGUGAGGGGAGGCGGUGGGCGGGCAGGUGGAACUCAACAGAGGAUUGAGCAUCA
B4: chr15:25616465:25616466:-_ENSG00000114062_ENST00000438097|hu_mus|motif|central (ssRNA)
RNA: GGGAGUUCUACAGUCCGACGAUCAGCUUUGCAAAAUAAUGGCAACGCCAUUUCCAGAUAUUCAGGACUGUGGAGAUUACGGUUCUCCAUUACAAUAAUGAACAAAUUGAGAUAAUUAGGAUCUCGAGUAUACACAUUAUGAUACAACAGAGGAUUGAGCAUCA
B5: 105362805_105362925_2386_CDS_ENSG00000107957_ENST00000369774|human|control|control (ssRNA)
RNA: GGGAGUUCUACAGUCCGACGAUCAGCAGAGCGGGGCUUCAGGUCGCCACUGGUUUUGGACAAGGAAGAGGAGGAGGAGGAAGAGGAGGAGCAGCAAGUGGUGUUGAUGGUGAUGGAUGAGGAAAAGGAGGCUGAGGAGUGGUUCAACAGAGGAUUGAGCAUCA
B6: 119525768_119544910_3349_CDS_ENSMUSG00000030172_ENSMUST00000032279|mouse|control|control (ssRNA)
RNA: GGGAGUUCUACAGUCCGACGAUCCUCGUUCUGAAGCUGCUCCUGAGUCAUCUUCUGCAGCUCAUUCUCCCAAGCUGCCUGCUCACCAUCUGCAUUAUAAGAAGCUGGUGGAGUGAGUCCACGGAGGAUUAAGGGGUCUCGGUCCAACAGAGGAUUGAGCAUCA
B7: 5366851_5366971_99_3pUTR_ENSMUSG00000024841_ENSMUST00000025759|mouse|control|control (ssRNA)
RNA: GGGAGUUCUACAGUCCGACGAUCAGAGGUCCUCCGGAUUUCCCGCCCCCUCUUCGUCCGUCCCUUUAACUCUUCCCUCCAUCAAGUGAGGCAAGCCUAAGUUCCGAGUGCGGGGCAGGAAAACGCAUUCUCCUCGGAGGUCUCCAACAGAGGAUUGAGCAUCA
B8: chr7:118215863:118215864:-_ENSMUSG00000005610_ENSMUST00000162415|mus_mus|FALSE|FALSE (ssRNA)
RNA: GGGAGUUCUACAGUCCGACGAUCUAUUGCAACAACUCAAGUAUUACUGAGCAAAGUGCAUCUCUACAGUAUUCAGUGUUGCUAUUCAGUUUUCUAACUUAAAACAGCCUAUGGUAACUGGCAGCAAAGAAGGUCCUUGCAAUACAACAGAGGAUUGAGCAUCA
B9: chr3:33710417:33710418:+_ENSMUSG00000027677_ENSMUST00000099153|mus_mus|motif|central (ssRNA)
RNA: GGGAGUUCUACAGUCCGACGAUCAGAAGUCACAGUUCUACUCAUGGAAAUUAAGACAAAGCUGUCCAGGGAACAUGCAAACGGUGGACAUAUUAAUGUAAAAGAAACUAAUGAUGACAGAACUGAGAAUCAAUUUAAAUUCUCCAACAGAGGAUUGAGCAUCA
B10: 138014305_138014425_2771_3pUTR_ENSMUSG00000046447_ENSMUST00000050918|mouse|control|control (ssRNA)
RNA: GGGAGUUCUACAGUCCGACGAUCUAAGAGGCAGCAGCUGAGUUCAUCGGUCUCUGCAGAUCAGGCAGGUGAUGUUUACAGAAGUUCCAGUUCCGAGAGUAAGGCAGUCAGAGCUAGAACCUGAACCCAAGUCCAGUCUCCCAGCAACAGAGGAUUGAGCAUCA
B11: chr12:32625335:32625336:-_ENSMUSG00000002996_ENSMUST00000172314|mus_hu|FALSE|FALSE (ssRNA)
RNA: GGGAGUUCUACAGUCCGACGAUCUGGGUAUUCUUGAUGUGAAACAUCUGAACUCAGCUGGUACAUGCCAGAUUGGGUAGGAUCACUUUGAACUGCCUGAAGUUCAGGAAGGUCAUCAAGCUCCAUGUGUUCAUCACAGGAGUUCAACAGAGGAUUGAGCAUCA
B12: chr3:176740097:176740098:-_ENSG00000177565_ENST00000430069|hu_mus|hu_hu_hu_mus_True|28_68 (ssRNA)
RNA: GGGAGUUCUACAGUCCGACGAUCUGUUUUGUAUACCACAAAAGGAGGCACUUUCAGUAUCUGCAAAAGGUAUUUAAUCCUAAAACAUACUCACCUAGAGGAUAACUAAAACAGAAUAUCUGUUACACUCUAAGACCUACUCCACAACAGAGGAUUGAGCAUCA
B13: chr10:13244450:13244451:-_ENSMUSG00000019809_ENSMUST00000019945|mus_hu|FALSE|FALSE (ssRNA)
RNA: GGGAGUUCUACAGUCCGACGAUCUUAUAUAUAUAUAUGUAUAUAAAAUAUCUAUAUUGAUUUUUAGUCAGUUUGGAACAAAUGUCCAUGUGUAACAAAUUAUUAACAAUUCUGAUAUUUGCACGUGUAUAUAUAUAUGCCCACCAACAGAGGAUUGAGCAUCA
B14: chr6:135286264:135286265:-_ENSG00000112339_ENST00000367826|hu_hu|motif|central (ssRNA)
RNA: GGGAGUUCUACAGUCCGACGAUCUUUGCCAGUUGGCAACUUAGAAUUUUUGCAGAGGUGAUUAUUAAUACUUCUUUGCAGCGGAUUUUAGCUUUAAUUUUUCUCUCUCAUCUAAAAACAUAUCAAUUGCACAUUGUUCCUUUGCAACAGAGGAUUGAGCAUCA
B15: chr5:135508174:135508175:+_ENSG00000113658_ENST00000545279|hu_mus|FALSE|FALSE (ssRNA)
RNA: GGGAGUUCUACAGUCCGACGAUCACUAGUAGAAGAUGCAUGAAAAGCUUCCCCAACACGAUUGUUUAAUUCAUAGUAGACAAUCGAACACCAGUGUUUGGGCUCCUCAUAGGCGACAGGCUGAACAUCUCUGCUGGAUAUGCUCAACAGAGGAUUGAGCAUCA
B16: chr17:64631184:64631185:-_ENSMUSG00000024083_ENSMUST00000172818|mus_mus|motif|central (ssRNA)
RNA: GGGAGUUCUACAGUCCGACGAUCUGGCUUGUUACACAGCAAUCUGCAGCAGUGUAAGUUUAAUCAGUAAGUGCCAUAACGGGUCAACAGUACAUAAAAGAAAACAAACAAACAAACCACACAAUUCACAAAUAUCCACAGUAUCAACAGAGGAUUGAGCAUCA
B17: chr16:94664741:94664742:+_ENSMUSG00000040785_ENSMUST00000117648|mus_hu|mus_mus_mus_hu_False|78_88 (ssRNA)
RNA: GGGAGUUCUACAGUCCGACGAUCUGGUACUGAUCUUGGUAGCUGAUACUCAGAAGAAAUGUUGGCCAAGGGUGUAUAUAUGCUGGUGUACUGGGGCAAACCUGGUAACACGUUUAUGUAUGCUGGCGGUGUCUGGGUGAUAUCCAACAGAGGAUUGAGCAUCA
B18: 82831620_82833072_1808_CDS_ENSMUSG00000042724_ENSMUST00000035987|mouse|control|control (ssRNA)
RNA: GGGAGUUCUACAGUCCGACGAUCCUGCACCGUGAACUUGUGCUGGAAAUCGGAGGGGAGGCUGAUGCGGUUGCCGUCCUUGAGCUUCAGCCGGCUCUUCCUGAACUUGCCCUUGCGUUUCUUCACCCGGGGCUUUUCCUGGCACAACAGAGGAUUGAGCAUCA
B19: chr3:176767854:176767855:-_ENSG00000177565_ENST00000430069|hu_hu|hu_hu_hu_mus_False|58_108 (ssRNA)
RNA: GGGAGUUCUACAGUCCGACGAUCGACAUCCUUGUUGCUGGGCACGUCCUGCCCUCCUUCCCGUAUGCAGUGUCUAAGUACUAACUGCGUAGGGCCACUCGUGCUGUUCUCACUGAGGUUCCAGAUUCUUGCCGUGGAGUCUCCCAACAGAGGAUUGAGCAUCA
B20: chr3:121489220:121489221:-_ENSG00000173226_ENST00000310864|hu_mus|motif|central (ssRNA)
RNA: GGGAGUUCUACAGUCCGACGAUCUGCCAGCUUUCACAGUACUCUCUAGGGAGGUUUGGUUCCACCGAUAAAUAACAUUCCGGAAUCGGUACUAAGCUCAUCCUUUGGAACAUCAACCUCAUCCCCUGGUUCUUCUCCAAGCUUCAACAGAGGAUUGAGCAUCA
B21: chr12:55961067:55961068:-_ENSMUSG00000062929_ENSMUST00000078124|mus_mus|FALSE|FALSE (ssRNA)
RNA: GGGAGUUCUACAGUCCGACGAUCUAAUAUCCUAGCUUAUCUAGAGAAUAAAUAAGAUACUGGAUAGGCCAAAGUGCAAAAAGAAUUUUUUUCUGAUCUCCAUUUUAUAACAUAAAUAAGCAUUUAUAAAAUUACCACUCUUUUCAACAGAGGAUUGAGCAUCA
B22: chr3:10015032:10015033:+_ENSMUSG00000027533_ENSMUST00000029046|mus_mus|mus_mus_mus_hu_True|98_98 (ssRNA)
RNA: GGGAGUUCUACAGUCCGACGAUCGUUUUUACCAUCACACGUAAUGAUACAAUCUGGCUUGGCCAUUGCGCCCAUUUUUCGCAAAGCUAUUCCCACUCCUAGCUCCUUCAUGUAUUCAUCAAAGCCUUUGCUGUCCACCAGGCGCAACAGAGGAUUGAGCAUCA

This is one part of the list.

This test concerns the target T1, UNK ZnF1-3. The experiment in a line: nsRBNS (natural sequence RNA bind-n-seq); RBNS binding buffer (assumed for nsRBNS): 25 mM Tris pH 7.5, 150 mM KCl, 3 mM MgCl2, 0.01% Triton X-100, 500 ug/ml BSA, 20 U/ml SUPERase-In, 4 C; UNK is unkempt and MSI1 is Musashi-1; names of the RNAs are library labels; protein concentration not given here; high values mean tight binding.
Molecule B1 came in with a binding signal of 1.12 enrichment R.

Molecule B2 displayed a binding signal of 0.541 enrichment R.

On to B3, for which the binding signal came to 1.07 enrichment R.

For B4, the binding signal was found to be 0.807 enrichment R.

On to B5, for which the binding signal is 2.56 enrichment R. Turning to B6, the binding signal was 1 enrichment R. Consider B7, for which the binding signal worked out at 0.679 enrichment R.

In the case of B8, the binding signal was found to be 1.13 enrichment R. B9 gave a binding signal of 1.25 enrichment R. The result for B10 reads 1.49 enrichment R. Molecule B11 had a binding signal of 0.777 enrichment R. Molecule B12 registered a binding signal of 0.794 enrichment R. B13 showed a binding signal of 0.474 enrichment R.

With B14, the binding signal stood at 1.11 enrichment R. The molecule B15 returned a binding signal of 1.43 enrichment R. As to B16, the binding signal turned out to be 1.9 enrichment R.

B17: the binding signal worked out at 1.11 enrichment R. The result for B18 reads 0.72 enrichment R; that for B19, 0.691 enrichment R; that for B20, 1.03 enrichment R. Turning to B21, the binding signal was determined as 1.18 enrichment R. The result for B22 reads 0.841 enrichment R.
